Measured values from paper PMC4336329 (PLoS ONE, 2015).
The whole screen tested about 310,000 compounds, of which about 14,000 (4.5%) showed an effect of 50% or more. Effects have a minus sign here. The list shows a part of the results.

These molecules were tested against human ether-à-go-go-related gene (hERG) potassium channel (human, UniProt Q12809) (assay: primary screen, population patch clamp on CHO cells stably expressing hERG).
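Further: peak tail current of the secondary pulse compared with the same well before compound.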

Chain of human ether-à-go-go-related gene (hERG) potassium channel (Q12809 whole entry, looked up): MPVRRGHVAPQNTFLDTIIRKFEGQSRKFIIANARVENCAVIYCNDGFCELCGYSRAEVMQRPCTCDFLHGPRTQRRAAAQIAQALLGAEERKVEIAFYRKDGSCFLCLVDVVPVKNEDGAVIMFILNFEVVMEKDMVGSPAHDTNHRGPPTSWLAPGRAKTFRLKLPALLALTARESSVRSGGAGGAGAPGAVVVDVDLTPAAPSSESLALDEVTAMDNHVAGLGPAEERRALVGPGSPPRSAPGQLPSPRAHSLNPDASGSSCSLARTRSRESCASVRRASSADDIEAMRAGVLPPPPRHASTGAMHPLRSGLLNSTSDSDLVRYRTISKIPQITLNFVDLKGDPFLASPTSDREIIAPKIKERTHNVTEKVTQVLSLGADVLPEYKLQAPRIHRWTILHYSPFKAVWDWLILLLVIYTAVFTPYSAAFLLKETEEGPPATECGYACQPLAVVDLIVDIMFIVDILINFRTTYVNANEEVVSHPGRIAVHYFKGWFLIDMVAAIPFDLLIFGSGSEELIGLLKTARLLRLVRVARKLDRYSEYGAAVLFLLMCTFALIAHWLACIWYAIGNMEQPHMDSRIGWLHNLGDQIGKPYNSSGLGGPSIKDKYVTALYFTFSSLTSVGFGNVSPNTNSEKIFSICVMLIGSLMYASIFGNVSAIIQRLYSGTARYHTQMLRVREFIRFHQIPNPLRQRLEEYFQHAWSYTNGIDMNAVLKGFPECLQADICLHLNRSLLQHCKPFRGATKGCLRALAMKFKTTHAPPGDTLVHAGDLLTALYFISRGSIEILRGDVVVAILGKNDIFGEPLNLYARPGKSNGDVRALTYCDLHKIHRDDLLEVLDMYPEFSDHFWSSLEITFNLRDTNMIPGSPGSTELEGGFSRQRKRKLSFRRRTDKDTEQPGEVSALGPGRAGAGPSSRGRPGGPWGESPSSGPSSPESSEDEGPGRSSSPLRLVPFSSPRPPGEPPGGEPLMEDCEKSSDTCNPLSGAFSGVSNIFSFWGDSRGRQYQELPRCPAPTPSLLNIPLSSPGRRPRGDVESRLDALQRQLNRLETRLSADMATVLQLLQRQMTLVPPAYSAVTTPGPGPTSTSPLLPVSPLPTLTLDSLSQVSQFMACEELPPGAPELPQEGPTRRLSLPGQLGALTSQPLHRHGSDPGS

SMILES | hERG current change (%, negative = inhibition) at 10uM [%]
Cc1ccc2cc(C=O)c(Cl)nc2c1 | 33
CC(=O)NC(=S)Nc1cc(C(=O)O)ccc1Cl | -64.9
O=C(NCC(=O)N(CC1CCCO1)C1(C(=O)NC2CCCC2)CCCCC1)c1ccccc1 (centres unmarked) | 3.96
CN(CC(=O)Nc1ccc(F)c(F)c1F)C(=O)CN1C(=O)NC2(CCCC2)C1=O | 1.01
O=C(Nc1nncs1)C12CC3CC(CC(Cl)(C3)C1)C2 | 6.85
CCCCNC(=O)CN(C1CCCCC1)S(C)(=O)=O | 13.1
NC(=O)CSc1nnc(Cc2csc(Nc3ccccc3)n2)n1Cc1ccccc1 | -8.6
CC(C)OP(=O)(OC(C)C)C(Nc1ccccc1)c1cccc([N+](=O)[O-])c1 (centres unmarked) | 11.8
N#Cc1cccc(NC(=O)Cn2c3[n+](c4ccc(C(F)(F)F)cc42)CCCCC3)c1.[Cl-] | 9.05
CCOc1ccc(-n2cc(C(=O)Nc3cccc(Cl)c3)c3cc(OC)c(OC)cc3c2=O)cc1 | -0.102
CCC(=O)Nc1ccc2nc(SCC(=O)N3CCCC3)sc2c1 | -13.2
COCCOC(=O)C1=C(C)N=C2SCCC(=O)N2C1/C=C/c1ccccc1 (centres unmarked) | -15.3
Cc1cccc(OCC(=O)N/N=C\c2cn(C)c3ccccc23)c1 | 7.68
CC(C)CNC(=O)CN(c1cccc(Cl)c1)S(C)(=O)=O | 10.1
COC(=O)c1ccc(NC(=O)N2CCCC(C(=O)c3ccccc3OC)C2)cc1 (centres unmarked) | -6.7
O=C(Oc1ccc(N(C(=O)c2ccncc2)S(=O)(=O)c2cccs2)cc1)c1ccncc1 | 3.77
O=C1c2cccc(Cl)c2C(=O)c2c1cccc2N1CCCC1 | -9.16
Cc1cccc(OCC(=O)NNC(=O)C2CCN(c3ncnc4sc(C)c(C)c34)CC2)c1 | -48.2
O=C(NNC1CC(=O)N(c2ccc(Cl)cc2)C1=O)c1ccccn1 (centres unmarked) | 8.32

SMILES | hERG current change (%, negative = inhibition) at 10uM [%]
CCCCc1c(C)nc2ccccc2c1SCCC(=O)O | 14.8
COc1ccc(Nc2nc(C)cc(C)c2C#N)c(OC)c1 | 22.3
CCOc1cc(/C=N\NC(=O)C2C(=O)NCC2c2ccccc2)ccc1OC (centres unmarked) | 10.2
Cc1ccccc1NC(=O)Cc1nc(-c2ccc3ccccc3c2)cs1 | 6.09
Cc1ccc2c(c1)CCCN2C(=O)c1cccs1 | -7.85
Cn1nnnc1SCC(=O)N1c2ccccc2Sc2ccccc21 | -3.66
COc1ccc(OC)c(CNC(=O)c2ccc(C)c(NC(=O)C3=C(C)OCCS3)c2)c1 | -3.96
CCOC(=O)c1ccccc1NC(=O)c1c(O)[nH]c(=S)[nH]c1=O | 15.6
Cc1ccccc1C(=O)Nc1ccc(N2CCOCC2)nc1 | -12.1
CCC12CN3CC(CC)(CN(C1)C3c1cccnc1)C2=O (centres unmarked) | -9.61
CC(=O)Nc1ccc(S(=O)(=O)Oc2ccc3c(c2)C(C)=CC(C)(C)N3)cc1 | -1.1
[2H]C(CCOS(N)(=O)=O)c1ccccc1 (centres unmarked) | 20.3
COc1ccc(/C(C)=N/NC(=O)CNC(=O)c2cccnc2)c(OC)c1 | 9.54
O=C(NCCc1c[nH]c2ccccc12)C1CCN(Cc2ccc(Br)cc2)CC1 | -54
COCCn1c(=NC(=O)CSCC(=O)NC2CCCCC2)sc2cc(OC)ccc21 | -18.5
Cn1cc(C(=O)NC2CC2)c2ccccc21 | 16.6
Cc1ccc(/C=C/C(=O)Nc2cccc3ncccc23)o1 | 0.761
CCN(CC)c1ccc(/C=N/NC(=O)c2c(-c3ccccc3)noc2C)cc1 | -9.56
CC(=O)c1ccc(N2CCN(S(=O)(=O)c3ccc4c(c3)CC(=O)N4C)CC2)cc1 | -21.8

SMILES | hERG current change (%, negative = inhibition) at 10uM [%]
CC(OC(=O)c1cc(=O)[nH]c2ccccc12)c1ccccc1 (centres unmarked) | -7.72
O=C(COC(=O)c1c2c(nc3ccccc13)/C(=C/c1cccc([N+](=O)[O-])c1)CCC2)NC1CCS(=O)(=O)C1 (centres unmarked) | -12
O=C(NCCCc1ccccc1)c1cc([N+](=O)[O-])ccc1Cl | -12.3
CCN(CC)C(=O)c1[nH]cnc1C(=O)NCc1ccc(CNC(=O)OC(C)(C)C)cc1 | 17.1
C=CCOc1cccc(NC(=O)c2ccccc2SC)c1 | 11.3
COC(=O)C1=C(O)/C(=C\c2ccc(OCC(=O)Nc3ccccc3OC)cc2)N=C1C | 0.751
Cc1c(C)n2c(SCC(=O)Nc3cccc4ccccc34)nnc2[nH]c1=O | 5.27
CN1CCCC(OC(=O)c2ccc(C(C)(C)C)cc2)C1.Cl (centres unmarked) | -1.37
COc1cccc(CN2CC(C(=O)NCCCCc3ccccn3)CCC2=O)c1 (centres unmarked) | -0.118
Cc1c(C2C(C#N)=C(N)N(c3ccccc3C#N)C3=C2C(=O)CCC3)cnn1C (centres unmarked) | 0.578
O=C(O)C1C2C=CC(O2)C1C(=O)Nc1ccccc1C(F)(F)F (centres unmarked) | -4.22
CC1=Nc2cc(C(=O)NCCN3CCOCC3)ccc2Sc2c(C)ccc(C)c21 | -14.9
O=C(CCCc1ccccc1)N1CCc2ccccc21 | 10.1
CCC(C)(C)NC(=O)C(c1cccn1C)N(C(=O)Cn1nnc2ccccc21)c1ccccc1OC (centres unmarked) | -8.89
CN1CCC(NC(=S)Nc2cccc([N+](=O)[O-])c2)CC1 | 6.35
CCOP(=O)(OCC)c1nc(-c2ccc(Br)cc2)oc1N1CCCCC1 | -65.3
CC(C)CNC(=O)c1ccc(NC(=O)c2ccccc2[N+](=O)[O-])cc1 | 16.9
O=C(Nc1ncn[nH]1)c1cc(S(=O)(=O)Nc2ccc(Cl)cc2)ccc1Cl | 3.7
